# Data published in PubChem BioAssay AID743279 (National Center for Advancing Translational Sciences (NCATS), 2014).
# The whole screen tested about 360,000 compounds, of which about 17,000 (4.7%) were called active. Inconclusive means that the source gave no clear call. Such entries were picked first, then a sample of the others. No stated cut-off is given here; in the data, active means activity change below about -50%; inconclusive means mostly about -30% to -49%; inactive means weaker than that.
# Assay: qHTS for Inhibitors of Inflammasome Signaling: IL-1-beta AlphaLISA Primary Screen
# Conditions: THP-1 LPS/ATP IL-1B secretion, 16 h; at 57.5 µM, hits give low values
# In short: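 THP-1 cells pretreated 1 hr with compounds (up to 57.5 uM final), then stimulated with LPS (250 ng/mL final) plus ATP (1.25 mM final); secreted IL-1B measured by AlphaLISA after 16 hr, decreased signal indicating inhibition.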
# On the % scale 0 is the no-effect control and ±100 the full control effect.
row,Compound,activity change
1,COc1ccc(NC(=O)CN2CCCCC2)c([N+](=O)[O-])c1,inconclusive: -34.8%
2,COC(=O)c1[nH]c2ccc(Br)cc2c1NC(=O)CN1CCN(C2CCCCC2)CC1,active: -99.6%
3,O=C(CSc1nnc(-c2c[nH]c3ccccc23)o1)N1c2ccccc2CCc2ccccc21,active: -67.9%
4,Cc1cc(NC(=S)Nc2ccc(C)c(Cl)c2)n[nH]1,inactive: 39.8%
5,NC(=O)N/N=C/c1ccc(-c2cccc(C(F)(F)F)c2)o1,inactive: -6.32%
6,CCO[C@H]1OC(C(=O)NCc2ccccc2)=C[C@@H](c2ccc(C(F)(F)F)cc2)[C@@H]1CCCO,inconclusive: -46.9%
7,COc1cccc(C2C(C#N)=C(N)N(N(C)C)C3=C2C(=O)CCC3)c1 (stereo not drawn),inactive: -10.4%
8,COc1ccc(CCN2CC(C(=O)N(C)C3CCOCC3)CCC2=O)cc1 (stereo not drawn),inconclusive: -38.5%
9,Cc1ccc(-c2cc(-c3nnc(SCC(=O)N(C)CCC#N)n3N)c3ccccc3n2)cc1,inconclusive: -47.5%
10,CN(C(=O)c1ccco1)c1nc(-c2ccc(Cl)cc2)cs1,inconclusive: -33.2%
11,COc1ccc(C(CNC(=O)COc2ccc(-c3ccccc3)cc2)N2CCOCC2)cc1 (stereo not drawn),active: -60.6%
12,c1ccc(C[C@H]2CN=C(Nc3ccccc3)N2CCC2CCCC2)cc1,inconclusive: -43.8%
13,CC(=O)c1ccc(N(C(=O)CNC(=O)c2ccco2)C(C(=O)NC2CCCC2)c2ccncc2)cc1 (stereo not drawn),inactive: -9.77%
14,CCn1c(SCC(=O)Nc2ccc(OC)cc2)nc2nc3c(cc2c1=O)CCCC3,active: -82.5%
15,COc1ccc(-c2cc(C(=O)N3CCN(c4ccccc4O)CC3)c3ccccc3n2)cc1,inconclusive: -37.5%
16,N#CC1=C2N=C(N)c3ccccc3N2C2=C(C(=O)CCC2)C1c1cccc(Cl)c1 (stereo not drawn),inconclusive: -42.6%
17,CC(c1ccccc1)N1C(=O)CC(Sc2ncccc2C(=O)O)C1=O (stereo not drawn),inactive: 17.5%
18,CCCCOc1ccc(/C=C/C(=O)N(CC)CC(=O)Nc2ccc3c(c2)OCCO3)cc1OC,inconclusive: -47.4%
19,CCOc1ccc(N2Nc3n[nH]c(N)c3N2)cc1,inconclusive: -41.7%
20,O=C(CSc1nnc(-c2ccc(Br)cc2)n1C1CCCCC1)N1CCCC1,inactive: 30.8%
21,Cn1c(SCC(=O)N2CCOCC2)nnc1-c1ccc(NC(=O)c2ccccc2F)cc1,inconclusive: -43.2%
22,Cc1nc2oc3ccccc3c(=O)c2c(=O)n1Cc1ccccc1,inconclusive: -30.3%
23,CCCCOCCCNC(=O)C[C@@H]1C[C@@]2(C(=O)OCC)CCCC=C2N(Cc2ccc(Cl)cc2Cl)C1=O,active: -78.7%
24,CCOc1ncnc2c1[nH]c1ccccc12,inconclusive: -41.9%
25,O=C(NC1CCCc2c1cnn2-c1ccc(F)cc1F)c1ccccc1N1CCOCC1 (stereo not drawn),inactive: 3.58%
26,Cc1cc(C)c(C(N)=O)c(Nc2ccc(F)cc2)n1,inactive: -4.28%
27,Cc1ccc(C2(c3ccc(C)cc3)CC2C(=O)Nc2ccc([N+](=O)[O-])cc2O)cc1 (stereo not drawn),active: -73.4%

row,Compound,activity change
1,CN[C@@H](CO)C(=O)NC[C@H]1O[C@@H](n2cc(C)c(=O)[nH]c2=O)C[C@@H]1O,inactive: 15.3%
2,CCN(CC)S(=O)(=O)c1ccc(NC(=O)c2ccc(N3CCCC3=O)cc2)cc1,inactive: -1.55%
3,Cc1ccc(CNC(=O)CCCn2nc(C)c3c(C)n(-c4ccccc4)nc3c2=O)cc1,inconclusive: -36.3%
4,CC(=O)c1c(C)[nH]c(C(=O)OCc2cc(=O)n3cc(Br)ccc3n2)c1C,inconclusive: -32.6%
5,COc1ccc(CN2CCCCC2C(=O)Nc2ccc(OC)c(OCC(C)C)c2)cc1OC (stereo not drawn),inconclusive: -32.7%
6,Cc1ccsc1C1C(C(=O)O)c2ccccc2C(=O)N1C (stereo not drawn),inactive: -4.76%
7,CCN1CCN(Cc2ccc(NC(=O)Nc3ccc(SC)cc3)cc2)CC1,inconclusive: -43.6%
8,O=C1NC[C@@H](CCCCN2C[C@H](Cc3ccccc3)N(CC3CCCCC3)C(=O)C2=O)N(CCc2ccccc2)C1=O,inactive: -8.75%
9,CN(CCc1ccccn1)C(=O)CCC1CCCN(C(=O)c2ccccn2)C1 (stereo not drawn),inactive: 19%
10,O=C1CCCCC1C(Nc1ccc(Br)cc1)c1ccccc1 (stereo not drawn),active: -71.8%
11,CN(C)S(=O)(=O)N1CCN(c2ccnc3cc(Cl)ccc23)CC1,inconclusive: -36%
12,O=C1C=C(c2ccc3ccccc3c2)C[C@@H](c2ccc(Cl)cc2)C1,inconclusive: -30.4%
13,Cc1noc(C)c1CSc1cc(C)c2ccccc2n1,inconclusive: -45.2%
14,CNc1nc(N)nc(OC(C(F)(F)F)C(F)(F)F)n1,inactive: -7.65%
15,COc1ccccc1NS(=O)(=O)c1ccc(C)c(C(=O)NC2=NCCS2)c1,inactive: 15.2%
16,Cc1ccc2c(c1)N(S(=O)(=O)c1cc(-c3onc(C)c3C)ccc1C)CCO2,inconclusive: -48.5%
17,O=Cc1ccc(-n2nncc2-c2ccc([N+](=O)[O-])cc2)cc1,inactive: 12.4%
18,COc1ccc(OC)c(CCNC(=O)c2ccc(CS(=O)Cc3ccc(Cl)cc3)o2)c1 (stereo not drawn),inconclusive: -48.8%
19,CCOc1ccc(Cn2nnc(C(=O)NCCc3ccccc3)c2N)cc1,inconclusive: -32.9%
20,Cc1ccc([N+](=O)[O-])c(OCCN2C(=O)NC(C)(C)C2=O)c1,inactive: -4.08%
21,CCOc1ccc(N(CC(=O)N/N=C/c2cc(Br)c(C)o2)S(C)(=O)=O)cc1,inactive: 1.52%
22,Oc1[nH]c2ccccc2c1N=Nc1nc(Nc2ccccc2)nc(N2CCOCC2)n1,inconclusive: -47.8%
23,Cc1ccc2nc(-c3ccc(F)cc3)c(Cc3ccccc3C(F)(F)F)n2c1,inactive: 14%
24,COc1ccc(CN(C)C[C@@H]2OCCCC[C@H](C)Oc3ccc(NC(=O)Nc4ccc(F)cc4)cc3C(=O)N([C@H](C)CO)C[C@H]2C)cc1,inconclusive: -36.9%
25,COc1cc(NC(=O)CCc2nnc3ccc(N4CCC5(CC4)OCCO5)nn23)cc(OC)c1,inconclusive: -43.4%
26,O=C(Nc1ccc(O)cc1C(=O)O)c1cccc(Br)c1,inconclusive: -41.7%
